# According to the supplement of paper PMC4166925:
# ± gives the standard deviation of the averaged measurements. In all, about 33,000 sequences were measured (“E-score (dimensionless, -0.5 to 0.5)”: median about -0.049, highest 2% from about 0.37 on). Some of the results follow.
# System: T1, PmTbr T-box DNA-binding domain (GST fusion)
# T1 sequence: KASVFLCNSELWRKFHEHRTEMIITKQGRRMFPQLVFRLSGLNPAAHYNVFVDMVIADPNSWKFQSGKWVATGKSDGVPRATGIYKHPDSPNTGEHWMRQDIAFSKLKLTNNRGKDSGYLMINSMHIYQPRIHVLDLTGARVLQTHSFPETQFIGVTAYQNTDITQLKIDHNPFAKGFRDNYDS
# Assay: PBM E-score of 8-mer (E-score (dimensionless, -0.5 to 0.5)); Tbr is Tbrain of the sea star Patiria miniata (Pm) or the sea urchin Strongylocentrotus purpuratus (Sp); higher = stronger binding preference; most listed sequences are background and not binding sites
# Details: the construct has about 5 more residues each side
# Outline: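 Each ungapped 8-mer received an enrichment E-score from the Universal PBM Analysis Suite, averaged over duplicate arrays. The proteins were Tbr T-box DNA-binding domains, covering the whole T-box plus about five flanking residues, fused to GST and expressed in BL21 E. coli at 20 °C before glutathione affinity purification. Universal Agilent oligonucleotide arrays were made double-stranded by primer extension and incubated with 200 nM protein in PBS (pH 7.5). The arrays were then scanned and quantified, and every 8-mer was scored from probe intensities.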
row,Sequence,PBM E-score of 8-mer
1,CAGGCCAA,-0.135 ± 0.042
2,CAATGAAC,-0.0316 ± 0.025
3,ACACCACG,0.3698 ± 0.0022
4,ACCATGAG,-0.0468 ± 0.087
5,CTATCGTA,-0.125 ± 0.019
6,CAATTTTC,0.0462 ± 0.0084
7,AGATCCTC,-0.222 ± 0.038
8,AGGGGGCA,-0.2819 ± 0.00085
9,ATCTGTTA,0.25 ± 0.037
10,CGATCCCA,-0.16 ± 0.14
11,AAGAAACT,-0.00862 ± 0.064
12,AACATAAT,-0.06 ± 0.035
13,ATTATGGC,-0.00349 ± 0.0047
14,CAAAATGA,-0.0745 ± 0.041
15,GTGGTATA,-0.0535 ± 0.055
16,CCCCCTGA,-0.0635 ± 0.0079
17,ACGAGCAA,0.00985 ± 0.047
18,CCTTATCC,-0.0714 ± 0.035
19,GCCCAGGC,-0.195 ± 0.014
20,ACTGCAAT,0.0329 ± 0.01
21,CGCCGAAG,-0.206 ± 0.045
22,ACCACTGG,0.0522 ± 0.047

row,Sequence,PBM E-score of 8-mer
1,CGACCACA,0.0507 ± 0.089
2,ACTCGCGA,0.38 ± 0.0065
3,GACGCGCC,0.192 ± 0.0041
4,AGCAGCAG,-0.231 ± 0.0088
5,ACAACGAA,-0.164 ± 0.099
6,ACAATTCC,-0.0659 ± 0.015
7,ATCGTTTA,0.0333 ± 0.024
8,AGCTGGAG,-0.155 ± 0.11
9,ATGCGCCC,-0.259 ± 0.0049
10,GACAGTAA,0.153 ± 0.037
11,TGAATAAA,0.123 ± 0.056
12,ATGAAGGG,-0.229 ± 0.05
13,CGTTGGGA,-0.0875 ± 0.00071
14,CTACGGAG,-0.298 ± 0.03
15,GCCAGACC,-0.0581 ± 0.014
16,AGGGCTTG,-0.279 ± 0.087
17,CAAGCTAC,-0.142 ± 0.065
18,CGGGATAG,-0.0663 ± 0.1
19,CCGCCGGA,-0.0902 ± 0.034
20,GCTCACGA,-0.0428 ± 0.019
21,GATTGTCC,-0.233 ± 0.009
22,ATGCGTGA,0.328 ± 0.023

row,Sequence,PBM E-score of 8-mer
1,ATGCTGTC,0.0533 ± 0.011
2,AACCAAGC,-0.181 ± 0.0088
3,ACAGTTAC,0.0628 ± 0.0017
4,AACCACGC,0.0172 ± 0.086
5,ACAATATC,0.0442 ± 0.011
6,CGGTCGGA,-0.277 ± 0.052
7,CTATGGTA,-0.1961 ± 0.0016
8,GACCATAA,0.141 ± 0.011
9,CGCGTACA,0.0502 ± 0.0097
10,AGTGCGTC,-0.147 ± 0.029
11,TAAAGGAA,-0.237 ± 0.0043
12,CGTAGACC,-0.276 ± 0.096
13,AGCGTTCG,0.214 ± 0.068
14,ATAGGGCG,0.0669 ± 0.081
15,ATAAGCCA,-0.233 ± 0.015
16,ACAGGTGG,0.331 ± 0.022
17,CGCCCACA,0.156 ± 0.047
18,ATGCTACA,-0.00854 ± 0.041
19,AAGGTAGC,0.136 ± 0.031
20,CCTGCACG,0.0214 ± 0.042
21,CGTAAGAA,-0.0628 ± 0.11
22,CTATTGAC,-0.0881 ± 0.003

row,Sequence,PBM E-score of 8-mer
1,AGAGCTGC,-0.0211 ± 0.037
2,AGTATAGC,0.0478 ± 0.033
3,GATAATCC,0.0503 ± 0.0044
4,AAGTCCCT,-0.0395 ± 0.055
5,GGAGAAGA,-0.2914 ± 0.0019
6,TCCCCTCA,-0.125 ± 0.032
7,CTTTGCTA,0.0888 ± 0.023
8,GCGTTTAC,-0.00072 ± 0.015
9,CGCCGTAA,0.014 ± 0.027
10,CTGCTCGA,-0.217 ± 0.031
11,AAACTCGA,-0.034 ± 0.065
12,CAGAAGAC,-0.188 ± 0.011
13,CGCGTGCC,0.0704 ± 0.011
14,AGGTCCAG,-0.165 ± 0.041
15,ACCATATG,0.075 ± 0.015
16,TAGCCCCA,-0.119 ± 0.0082
17,ACACATGG,0.28 ± 0.018
18,CCCCCTCC,-0.118 ± 0.0016
19,GTGAGGCA,0.0693 ± 0.054
20,CTAAGGAA,-0.129 ± 0.078
21,ATGTGCCC,-0.0261 ± 0.068
22,GAGAACGC,0.224 ± 0.024

row,Sequence,PBM E-score of 8-mer
1,CCTGAGTC,-0.069 ± 0.067
2,ACCATGTA,0.024 ± 0.022
3,ATTTGGTG,0.12 ± 0.045
4,ATTCCGTA,-0.153 ± 0.013
5,ATCACCGG,-0.319 ± 0.02
6,GCTTAAAC,0.0501 ± 0.0056
7,CCGCATAG,-0.047 ± 0.042
8,CTCGCCAA,0.147 ± 0.018
9,CATTACTC,-0.199 ± 0.05
10,AGGAGCAG,-0.185 ± 0.042
11,AAACCATT,-0.102 ± 0.019
12,GTAATGAA,0.00185 ± 0.052
13,ACGCACCC,0.195 ± 0.0077
14,CTCTGTAC,-0.00281 ± 0.017
15,ATCAGAAT,-0.106 ± 0.065
16,CTACGTTC,-0.172 ± 0.024
17,GAACGCTC,0.0583 ± 0.052
18,AGCCCGCC,-0.209 ± 0.066
19,AGCAATCA,-0.188 ± 0.026
20,ATATGACC,-0.0991 ± 0.077
21,CTTCATGA,-0.163 ± 0.081
22,CAGCATGG,-0.0939 ± 0.11
